The other results are listed elsewhere or left out.
Tests used:
Test in all cases: glycan array binding signal (z-score within array); higher = stronger binding
Details in all cases: glycan notation: IUPAC condensed, linker removed
[1] = target: Fuc(a1-2)Gal(b1-4)GlcNAc(b1-2)[Fuc(a1-2)Gal(b1-4)GlcNAc(b1-4)]Man(a1-3)[Fuc(a1-2)Gal(b1-4)GlcNAc(b1-2)Man(a1-6)]Man(b1-4)GlcNAc(b1-4)GlcNAc
Outline: (§1)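 From the Consortium for Functional Glycomics database, 3228 arrays were curated, keeping only those whose protein sequence was available. Binding is given as a within-array Z-score averaged across arrays sharing a protein sequence and across linkers. Negative Z-scores can be read as non-binding.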

[2] = target: Fuc(a1-2)Gal(b1-4)GlcNAc(b1-3)Gal(b1-4)GlcNAc
Outline: as §1

[3] = target: Fuc(a1-2)Gal(b1-4)GlcNAc(b1-3)Gal(b1-4)GlcNAc(b1-2)Man(a1-3)[Fuc(a1-2)Gal(b1-4)GlcNAc(b1-3)Gal(b1-4)GlcNAc(b1-2)Man(a1-6)]Man(b1-4)GlcNAc(b1-4)GlcNAc
Outline: as §1

[4] = target: Fuc(a1-2)Gal(b1-4)GlcNAc(b1-3)Gal(b1-4)GlcNAc(b1-3)Gal(b1-4)GlcNAc
Outline: as §1

[5] = target: Fuc(a1-2)Gal(b1-4)GlcNAc(b1-3)GalNAc
Outline: as §1

[6] = target: Fuc(a1-2)Gal(b1-4)GlcNAc(b1-3)[Fuc(a1-2)Gal(b1-4)GlcNAc(b1-6)]GalNAc
Outline: as §1

[7] = target: Fuc(a1-2)Gal(b1-4)GlcNAc(b1-3)[Fuc(a1-3)[Gal(b1-4)]GlcNAc(b1-6)]Gal(b1-4)Glc
Outline: as §1

[8] = target: Fuc(a1-2)Gal(b1-4)GlcNAc(b1-6)GalNAc
Outline: as §1

[9] = target: Fuc(a1-2)Gal(b1-4)GlcNAc6S
Outline: as §1

[10] = target: Fuc(a1-2)Gal(b1-4)[Fuc(a1-3)]GlcNAc
Outline: as §1

[11] = target: Fuc(a1-2)Gal(b1-4)[Fuc(a1-3)]GlcNAc(b1-2)Man(a1-3)[Fuc(a1-2)Gal(b1-4)[Fuc(a1-3)]GlcNAc(b1-2)Man(a1-6)]Man(b1-4)GlcNAc(b1-4)GlcNAc
Outline: as §1

[12] = target: Fuc(a1-2)Gal(b1-4)[Fuc(a1-3)]GlcNAc(b1-2)Man(a1-3)[Fuc(a1-2)Gal(b1-4)[Fuc(a1-3)]GlcNAc(b1-2)Man(a1-6)]Man(b1-4)GlcNAc(b1-4)[Fuc(a1-6)]GlcNAc
Outline: as §1

[13] = target: Fuc(a1-2)Gal(b1-4)[Fuc(a1-3)]GlcNAc(b1-2)[Fuc(a1-2)Gal(b1-4)[Fuc(a1-3)]GlcNAc(b1-4)]Man(a1-3)[Fuc(a1-2)Gal(b1-4)[Fuc(a1-3)]GlcNAc(b1-2)Man(a1-6)]Man(b1-4)GlcNAc(b1-4)GlcNAc
Outline: as §1

[14] = target: Fuc(a1-2)Gal(b1-4)[Fuc(a1-3)]GlcNAc(b1-3)Gal(b1-4)[Fuc(a1-3)]GlcNAc
Outline: as §1

[15] = target: Fuc(a1-2)Gal(b1-4)[Fuc(a1-3)]GlcNAc(b1-3)Gal(b1-4)[Fuc(a1-3)]GlcNAc(b1-3)Gal(b1-4)[Fuc(a1-3)]GlcNAc
Outline: as §1

[16] = target: Fuc(a1-2)Gal(b1-4)[Fuc(a1-3)]GlcNAc(b1-3)GalNAc
Outline: as §1

[17] = target: Fuc(a1-2)Gal(b1-4)[Fuc(a1-3)]GlcNAc(b1-3)[Neu5Ac(a2-6)Gal(b1-4)GlcNAc(b1-6)]Gal(b1-4)Glc
Outline: as §1

[18] = target: Fuc(a1-2)Gal3S(b1-4)GlcNAc
Outline: as §1

[19] = target: Fuc(a1-2)Gal6S(b1-3)GlcNAc
Outline: as §1

[20] = target: Fuc(a1-2)Gal6S(b1-3)GlcNAc6S
Outline: as §1

[21] = target: Fuc(a1-2)Gal6S(b1-4)Glc
Outline: as §1

[22] = target: Fuc(a1-2)Gal6S(b1-4)Glc6S
Outline: as §1

[23] = target: Fuc(a1-2)Gal6S(b1-4)GlcNAc
Outline: as §1

[24] = target: Fuc(a1-2)[Gal(a1-3)]Gal
Outline: as §1

[25] = target: Fuc(a1-2)[Gal(a1-3)]Gal(b1-3)GalNAc
Outline: as §1

[26] = target: Fuc(a1-2)[Gal(a1-3)]Gal(b1-3)GalNAc(b1-3)Gal(a1-4)Gal(b1-4)Glc
Outline: as §1

[27] = target: Fuc(a1-2)[Gal(a1-3)]Gal(b1-3)GlcNAc
Outline: as §1

[28] = target: Fuc(a1-2)[Gal(a1-3)]Gal(b1-3)GlcNAc(b1-2)Man(a1-3)[Fuc(a1-2)[Gal(a1-3)]Gal(b1-3)GlcNAc(b1-2)Man(a1-6)]Man(b1-4)GlcNAc(b1-4)GlcNAc
Outline: as §1

[29] = target: Fuc(a1-2)[Gal(a1-3)]Gal(b1-3)GlcNAc(b1-2)Man(a1-3)[Fuc(a1-2)[Gal(a1-3)]Gal(b1-3)GlcNAc(b1-2)Man(a1-6)]Man(b1-4)GlcNAc(b1-4)[Fuc(a1-6)]GlcNAc
Outline: as §1

[30] = target: Fuc(a1-2)[Gal(a1-3)]Gal(b1-3)GlcNAc(b1-3)GalNAc
Outline: as §1

B1: Siglec-F (Mus musculus), Q920G3 (protein)
chain: MRWAWLLPLLWAGCLATDGYSLSVTGSVTVQEGLCVFVACQVQYPNSKGPVFGYWFREGANIFSGSPVATNDPQRSVLKEAQGRFYLMGKENSHNCSLDIRDAQKIDTGTYFFRLDGSVKYSFQKSMLSVLVIALTEVPNIQVTSTLVSGNSTKLLCSVPWACEQGTPPIFSWMSSALTSLGHRTTLSSELNLTPRPQDNGTNLTCQVNLPGTGVTVERTQQLSVIYAPQKMTIRVSWGDDTGTKVLQSGASLQIQEGESLSLVCMADSNPPAVLSWERPTQKPFQLSTPAELQLPRAELEDQGKYICQAQNSQGAQTASVSLSIRSLLQLLGPSCSFEGQGLHCSCSSRAWPAPSLRWRLGEGVLEGNSSNGSFTVKSSSAGQWANSSLILSMEFSSNHRLSCEAWSDNRVQRATILLVSGPKVSQAGKSETSRGTVLGAIWGAGLMALLAVCLCLIFFTVKVLRKKSALKVAATKGNHLAKNPASTINSASITSSNIALGYPIQGHLNEPGSQTQKEQPPLATVPDTQKDEPELHYASLSFQGPMPPKPQNTEAMKSVYTEIKIHKC
glycan array binding signal (z-score) [1]: -0.129
glycan array binding signal (z-score) [2]: -0.13
glycan array binding signal (z-score) [3]: -0.079
glycan array binding signal (z-score) [4]: -0.124
glycan array binding signal (z-score) [5]: -0.105
glycan array binding signal (z-score) [6]: 0.009
glycan array binding signal (z-score) [7]: -0.151
glycan array binding signal (z-score) [8]: -0.066
glycan array binding signal (z-score) [9]: -0.129
glycan array binding signal (z-score) [10]: -0.122
glycan array binding signal (z-score) [11]: -0.085
glycan array binding signal (z-score) [12]: -0.117
glycan array binding signal (z-score) [13]: -0.13
glycan array binding signal (z-score) [14]: -0.127
glycan array binding signal (z-score) [15]: -0.118
glycan array binding signal (z-score) [16]: 0.013
glycan array binding signal (z-score) [17]: -0.156
glycan array binding signal (z-score) [18]: -0.15
glycan array binding signal (z-score) [19]: -0.161
glycan array binding signal (z-score) [20]: 0.045
glycan array binding signal (z-score) [21]: -0.123
glycan array binding signal (z-score) [22]: -0.114
glycan array binding signal (z-score) [23]: -0.09
glycan array binding signal (z-score) [24]: -0.114
glycan array binding signal (z-score) [25]: -0.116
glycan array binding signal (z-score) [26]: -0.149
glycan array binding signal (z-score) [27]: -0.115
glycan array binding signal (z-score) [28]: -0.116
glycan array binding signal (z-score) [29]: -0.093
glycan array binding signal (z-score) [30]: -0.118
